{"source": "PubChem BioAssay AID504832", "about": "(National Center for Advancing Translational Sciences (NCATS), 2011)", "note": "Among all 310,000 compounds or so, about 18,000 (5.8%) were called active. The shares of active, inactive and inconclusive entries below differ from those in the screen. Calls come from the whole dose curve; as a rule, active = well fitted inhibition curve with a large enough effect; inconclusive = small, poorly fitted or top-dose-only effect, or another doubt; inactive = no such curve, though single readings can be large or run the other way. Potencies of inconclusive entries are left out as doubtful fits. % is set by controls: 0 for no effect and ±100 for the full control effect; potency is the fitted concentration of half-maximal effect; tags give direction and shape of the fitted curve.", "data": [{"assay": "Primary qHTS for delayed death inhibitors of the malarial parasite plastid, 48 hour incubation", "details": "P. falciparum luciferase growth in erythrocytes; series mostly up to 28.7 µM; activity change, negative = inhibition: at the top concentration", "procedure,_shortened": "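Firefly luciferase activity from engineered P. falciparum reports growth; inhibitors lower the luminescent signal. Cultures contained 2% hematocrit erythrocytes at 0.1% final parasitemia.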", "values": [{"smiles": "O=C(Cc1ccc(Cl)cc1)Nc1ccc(N2CCN(C(=O)c3ccco3)CC2)cc1", "Potency": "inconclusive [inhibitor, partial curve, poor fit]"}, {"smiles": "CCCOc1ccc(CN(CCO)CCO)cc1[N+](=O)[O-]", "Potency": "inconclusive [inhibitor, partial curve, poor fit]"}, {"smiles": "N#C/C(=N\\Nc1ccccc1)C(N)=S", "Potency": "inconclusive [inhibitor, full curve, poor fit]"}, {"smiles": "CCO/C(C)=N/n1c2nc3ccccc3nc2c2c(=O)n(CC(C)C)c(C)nc21", "Potency": "active: 2.94 µM"}, {"smiles": "Cc1cc(C)n2[nH]c(=O)c(N=Nc3cccc(Cl)c3)c2n1", "Potency": "inconclusive [inhibitor, full curve, poor fit]"}, {"smiles": "COc1ccc(NS(=O)(=O)c2cccc(C(=O)NCC(c3ccccc3)N(C)C)c2)cc1", "note": "(centres undefined)", "Potency": "inconclusive [inhibitor, partial curve, poor fit]"}, {"smiles": "Cc1ccc(/C=C/c2onc(C)c2S(=O)(=O)N2CCC(C(=O)N3CCN(C)CC3)CC2)cc1", "Potency": "inconclusive [inhibitor, partial curve]"}, {"smiles": "C#Cc1ccc([C@@H]2C=C(C(=O)OCC=C)O[C@H](OCC)[C@H]2CCCO)cc1", "Potency": "inconclusive [inhibitor, partial curve, poor fit]"}, {"smiles": "CCOc1ccc(C2C=C(c3ccccc3)Nc3nnnn32)cc1", "note": "(centres undefined)", "activity change, negative = inhibition": "inactive: 43.5%"}, {"smiles": "CC(C)NCCCOc1ccc(Cl)cc1Br", "Potency": "inconclusive [inhibitor, single point]"}, {"smiles": "Cc1cc(NC(=O)CCC(=O)N(c2ccc(F)cc2)C(C(=O)NC2CCCC2)c2cccnc2)no1", "note": "(centres undefined)", "Potency": "inconclusive [inhibitor, single point]"}, {"smiles": "Cc1ccc(CC(=O)Nc2ncc([N+](=O)[O-])s2)cc1", "activity change, negative = inhibition": "inactive: 74.9%"}, {"smiles": "O=C(N/N=C/c1ccc(-c2ccc(S(=O)(=O)Nc3ncccn3)cc2)o1)c1cc2ccccc2cc1O", "Potency": "inconclusive [inhibitor, partial curve]"}, {"smiles": "CCN1CCN(CCCN(Cc2ccco2)C(=S)Nc2ccc(C)c(Cl)c2)CC1", "Potency": "inconclusive [inhibitor, single point]"}, {"smiles": "Cc1cc(=O)[nH]c(SCC(=O)NCC2CCCCC2)c1C#N", "activity change, negative = inhibition": "inactive: 1.03%"}, {"smiles": "Cc1ccc2c(CN3CCN(S(=O)(=O)c4ccc(Cl)cc4)CC3)cc(=O)oc2c1C", "Potency": "active: 4.15 µM"}, {"smiles": "CC(C)c1onc(C(=O)NCc2ccc(Cl)cc2)c1[N+](=O)[O-]", "Potency": "inconclusive [inhibitor, single point]"}, {"smiles": "Cc1nc(Nc2nc(CSc3ccc(Cl)cc3)cc(=O)[nH]2)nc2ccccc12", "activity change, negative = inhibition": "inactive: 0%"}, {"smiles": "COC(=O)c1cc(CNC(=O)c2cccc(Cl)c2Cl)ccc1OC", "activity change, negative = inhibition": "inactive: 39.5%"}, {"smiles": "CCCN(CCC)S(=O)(=O)c1nc2nc(C)cc(C)n2n1", "activity change, negative = inhibition": "inactive: 9.69%"}, {"smiles": "CC(C)(CO)NS(=O)(=O)c1ccc2c(c1)Cc1cc(S(=O)(=O)NC(C)(C)CO)ccc1-2", "Potency": "inconclusive [inhibitor, partial curve, poor fit]"}, {"smiles": "COC(=O)c1ccc2nc(NC(=O)C3CC3)sc2c1", "activity change, negative = inhibition": "inactive: 90%"}, {"smiles": "Cc1ccnc(N2C(=O)c3ccccc3C2Nc2ccccc2Cl)c1", "note": "(centres undefined)", "Potency": "inconclusive [inhibitor, single point]"}, {"smiles": "CN(CCN1CCc2ccccc2C1)Cc1nc(Cc2ccccc2F)no1", "Potency": "inconclusive [inhibitor, single point]"}, {"smiles": "COc1ccc(CN2CCN(C(C)C(=O)N3CCc4ccccc43)CC2)cc1OC", "note": "(centres undefined)", "Potency": "inconclusive [inhibitor, single point]"}, {"smiles": "COc1ccc(C(CNC(=O)C(C)Oc2ccc(Br)cc2)N2CCCCC2)cc1", "note": "(centres undefined)", "Potency": "active: 13.1 µM"}, {"smiles": "CCOC(=O)c1cnc2c(Cl)c(Cl)ccc2c1N1CCN(C)CC1", "Potency": "inconclusive [inhibitor, partial curve]"}, {"smiles": "COc1ccc(CCNC(=O)C2CCCN(S(=O)(=O)c3ccc(OC)cc3)C2)cc1", "note": "(centres undefined)", "Potency": "active: 9.28 µM"}, {"smiles": "Cc1cc(/C=N/NC(=O)c2ccncc2)c(C)n1-c1ccccc1", "activity change, negative = inhibition": "inactive: 26.2%"}, {"smiles": "CC(=O)Nc1ccc(NC(=O)c2cc(-c3ccc(C)cc3O)n[nH]2)cc1", "Potency": "inconclusive [inhibitor, full curve, poor fit]"}, {"smiles": "COc1ccc(S(=O)(=O)N(C)CC(=O)NCc2ccccc2)cc1OC", "activity change, negative = inhibition": "inactive: -7.56%"}, {"smiles": "O=C(Nc1ccc(Oc2ccc(NC(=O)Nc3ccccc3Cl)cc2)cc1)Nc1ccccc1Cl", "Potency": "active: 1.85 µM"}, {"smiles": "COc1ccccc1NC(=O)NC1CCCc2ccccc21", "note": "(centres undefined)", "Potency": "inconclusive [inhibitor, partial curve]"}, {"smiles": "C[C@@H](CN1CCC(Cc2ccccc2)CC1)[C@@H](O)c1ccc(O)cc1", "Potency": "inconclusive [inhibitor, single point]"}, {"smiles": "CCOC(=O)C1CCN(C(=O)c2ccc3c(c2)NC(=O)/C(=C\\c2ccc(C)cc2)S3)CC1", "Potency": "inconclusive [inhibitor, partial curve]"}, {"smiles": "CC1CCc2c(sc3ncnc(NCc4cccnc4)c23)C1", "note": "(centres undefined)", "Potency": "inconclusive [inhibitor, partial curve, poor fit]"}, {"smiles": "Cc1nc(C(=O)N2CCCC(C(=O)c3cccc(OC(C)C)c3)C2)cs1", "note": "(centres undefined)", "activity change, negative = inhibition": "inactive: -0.865%"}, {"smiles": "CCOC(=O)c1cccc(NC(=O)c2ccc(NC(=O)C3CCCO3)cc2)c1", "note": "(centres undefined)", "Potency": "inconclusive [inhibitor, partial curve, poor fit]"}, {"smiles": "Cc1nc(N2CCOCC2)c2c3c(sc2n1)CCC3", "Potency": "active: 10.4 µM"}, {"smiles": "COCCn1c(SC(C)C(=O)NC2CC2)nnc1-c1cccc(C)c1", "note": "(centres undefined)", "Potency": "inconclusive [inhibitor, partial curve, poor fit]"}, {"smiles": "CN(c1ccc(Br)cc1)S(=O)(=O)c1ccc2[nH]cc(C(=O)NCCN3CCOCC3)c(=O)c2c1", "Potency": "inconclusive [inhibitor, full curve]"}, {"smiles": "Cc1c(OCC(=O)NCc2ccncc2)ccc2c3c(c(=O)oc12)CCCC3", "activity change, negative = inhibition": "inactive: 19.6%"}, {"smiles": "Cc1cc(C)c2cccc(NC(=S)NC(=O)c3ccccc3)c2n1", "Potency": "active: 10.4 µM"}, {"smiles": "COc1cccc(NC(=O)CCN2CCN(C)CC2)c1", "Potency": "inconclusive [inhibitor, single point]"}, {"smiles": "Cc1ccc(N2C(=O)C(Cl)=C(NCc3ccccc3)C2=O)c(C)c1", "activity change, negative = inhibition": "inactive: 1.86%"}, {"smiles": "C/C(=N\\Nc1nc2ccccc2[nH]1)c1ccc2c(c1)OCCO2", "Potency": "active: 3.7 µM"}, {"smiles": "COc1cc(/C=C/C(=O)OCC(=O)NCCN2C(=O)CSC2=O)ccc1OCC#N", "Potency": "inconclusive [inhibitor, single point]"}, {"smiles": "COc1ccc(N2CCOCC2)c(NC(=O)c2ccc(Br)o2)c1", "Potency": "inconclusive [inhibitor, full curve, poor fit]"}, {"smiles": "OCC1(CCCc2ccccc2)CCN(Cc2cc(F)ccc2F)CC1", "Potency": "inconclusive [inhibitor, partial curve, poor fit]"}, {"smiles": "CC(Nc1nc(-c2cccnc2)nc2ccccc12)c1ccc(F)cc1", "note": "(centres undefined)", "Potency": "active: 4.65 µM"}, {"smiles": "COc1ccc(CN2CCN(CC(O)Cn3c4ccccc4c4ccccc43)CC2)cc1", "note": "(centres undefined)", "Potency": "active: 3.29 µM"}, {"smiles": "O=C(O/N=C/c1ccc2c(c1)OCO2)c1ccc([N+](=O)[O-])cc1", "Potency": "inconclusive [inhibitor, partial curve, poor fit]"}, {"smiles": "COc1cc(/C=N/NC(=O)CSc2nc3ccccc3n2C)cc(OC)c1OC", "activity change, negative = inhibition": "inactive: -12.2%"}, {"smiles": "CCc1ccccc1N1C(=O)/C(=C/c2ccc(N3CCN(C)CC3)o2)C(=O)NC1=S", "Potency": "inconclusive [inhibitor, single point]"}, {"smiles": "CCOc1ccc(NC(=O)CN(C)C(=O)c2csc3c2CCCC3)cc1OCC", "Potency": "active: 13.1 µM"}, {"smiles": "Cc1cccc(C(=O)/C=C2/c3ccccc3CC(C)(C)N2C)c1", "Potency": "inconclusive [inhibitor, single point]"}, {"smiles": "COC(=O)C1=C(C#N)NC(C)=C(C(=O)OC(C)C)C1c1cccc([N+](=O)[O-])c1", "note": "(centres undefined)", "Potency": "active: 7.57 µM"}, {"smiles": "O=C(COC(=O)c1ccc2c(=O)n3c(nc2c1)CCC3)Nc1ccc(OC(F)F)cc1", "activity change, negative = inhibition": "inactive: 15.2%"}, {"smiles": "COc1ccc(Cc2nc3ccc(C(=O)N(C)Cc4cc(C)[nH]n4)cc3o2)cc1OC", "Potency": "inconclusive [inhibitor, full curve, poor fit]"}, {"smiles": "Cc1ccc(-n2c(NN)nc3ccccc3c2=O)c(C)c1", "Potency": "inconclusive [inhibitor, partial curve]"}, {"smiles": "O=C(CSc1ncnc2ccccc12)c1cccs1", "activity change, negative = inhibition": "inactive: 418%"}, {"smiles": "CCN(c1cccc(C)c1)S(=O)(=O)c1ccc2[nH]c(=O)c(=O)[nH]c2c1", "Potency": "inconclusive [inhibitor, single point]"}, {"smiles": "CC(CCc1ccccc1)NC(=O)C(Cc1ccccc1)NS(=O)(=O)c1cccs1", "note": "(centres undefined)", "Potency": "inconclusive [inhibitor, partial curve, poor fit]"}, {"smiles": "Cc1ccc(-n2c(C)nc3c(cnn3-c3ccc(F)cc3)c2=O)cc1", "activity change, negative = inhibition": "inactive: -25.4%"}, {"smiles": "O=C(Cc1c(F)cccc1Cl)NNC(=S)Nc1ccc(S(=O)(=O)Nc2ncccn2)cc1", "Potency": "inconclusive [inhibitor, single point]"}, {"smiles": "Cc1ccccc1NC(=O)COC(=O)c1cccc(S(=O)(=O)N2CCCCC2)c1", "Potency": "inconclusive [inhibitor, single point]"}, {"smiles": "COc1cccc(CNC(=O)c2ccc(NC(=O)C3=CSCCO3)cc2)c1", "activity change, negative = inhibition": "inactive: 12.8%"}, {"smiles": "Cc1cc(-c2ccc(C)c(S(=O)(=O)NCCCN3CCN(c4ccccc4F)CC3)c2)on1", "Potency": "inconclusive [inhibitor, single point]"}, {"smiles": "Cc1ccccc1NS(=O)(=O)c1cc(C(=O)Nc2cccc(N(C)S(C)(=O)=O)c2)ccc1C", "Potency": "inconclusive [inhibitor, partial curve, poor fit]"}]}]}
